Values marked as one replicate rest on one cluster of the flow cell; about a third of the high ones do not repeat.
Tested on: ATP
Experiment: switch fluorescence ratio, 500 uM ATP over buffer (Cy3 cluster intensity, sum of 5 cycles each) (fold (ratio)); higher = stronger signal-on switching upon ATP binding; sequences stand for … in TCGTCGGCAGCGTCAGATGTGTATAAGAGACAGTTTTTTTTTTTTTTTTTTTTTTTTT…TC
Conditions: aptamer strand: ATP DNA aptamer (quencher-CACCTGGGGGAGTATTGCGGAGGAAGG + anchor), 100 nM annealed; ATP concentration: 500 uM; one replicate
Outline: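 The quencher-labelled ATP aptamer, at 100 nM, was annealed to Cy3-labelled switching-strand clusters on a modified Illumina MiSeq flow-cell. The clusters were imaged in selection buffer, then after 15 min with 500 uM ATP at 22 °C, and this buffer/ATP cycle ran five times with NaOH stripping and re-annealing between runs. Per-cluster fluorescence ratios, summed target-cycle over summed buffer-cycle Cy3 intensity, were averaged per switch-domain sequence. Clusters outside 100-1000 RFU were excluded.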
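Also: ATP exposure 15 min at 22 °C before imaging.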

| Sequence | switch fluorescence ratio |
| --- | --- |
| ATGAGCGCCA | 1.04 |
| GCTAGTTCCG | 1.06 |
| CACAAATGTG | 0.984 |
| CAGGTGGTTA | 1.19 |
| GGATTCCGAG | 1.11 |
| GAAAGATATT | 1.01 |
| ATGACACCGT | 1.01 |
| TCACGTACAG | 1.63 |
| TAAGAATAGG | 0.953 |
| GCCGCTATCT | 1.05 |
| TCGATGGGAC | 1.04 |
| GAGCCGGGG | 1.01 |
| TATATCGA | 0.984 |
| ATGGGTTGG | 0.989 |
| GGGACCCCAG | 1.09 |
| GTTTAAGTGT | 0.961 |
| GCGACTCCGA | 1.72 |
| GCCTAGATGA | 0.956 |
| TTCACTGCCG | 0.933 |
| GGTCACTAGC | 1.02 |
| CGGATTTTGT | 0.992 |
| AAACAATGCG | 1 |

| Sequence | switch fluorescence ratio |
| --- | --- |
| GCAGGATCAA | 0.992 |
| TTGTTACCAC | 1.02 |
| GTTTGTAAT | 0.988 |
| CCTTACTCA | 1.64 |
| AACTAGCAAG | 1.07 |
| CCATTGTCAG | 0.997 |
| GGAAAATCG | 0.976 |
| TGCTTTCACG | 0.985 |
| TGGAAAATCG | 1.01 |
| ATGGGCCTCC | 1.02 |
| GCGCCACTGT | 1.03 |
| ACGTTGCTGT | 1.12 |
| GTGGCCGCCC | 1.14 |
| TCCATTTCTG | 0.995 |
| TGCGTTTGT | 0.949 |
| TGATTTCAAT | 1 |
| TATATTGCGA | 1.02 |
| CTTCGGGATT | 1.03 |
| AGGTGACCTT | 1.06 |
| TAAAACGAGT | 1.03 |
| ACGGGCAACA | 1.09 |
| ATGTAGATTA | 1 |

| Sequence | switch fluorescence ratio |
| --- | --- |
| ATGACCCTTT | 0.998 |
| GAGAGTGGAT | 1.04 |
| GGGTGTGCGT | 0.984 |
| CTGGTTTTTA | 0.941 |
| GTCACCCGCA | 1.36 |
| ACATTGGCGC | 1.03 |
| CGGAGGACCT | 1.05 |
| CTAGGTAGCG | 0.989 |
| CATGGTTTGA | 0.977 |
| ATGGGGCGAG | 1.01 |
| TAAACTCTCG | 0.977 |
| TCTGGTCTAC | 1.06 |
| AAGAGGAAGT | 0.995 |
| CAGCCGAGG | 0.991 |
| GCAGAGTAGT | 0.989 |
| GTCGGGCGTG | 1.03 |
| CGATGATAGT | 0.993 |
| CATAACCAGA | 1.02 |
| TGTAGTGGCA | 1.02 |
| CGGGCTGTAT | 1.01 |
| GCATAAATGC | 1 |
| AACGAGCACA | 1.38 |

| Sequence | switch fluorescence ratio |
| --- | --- |
| CGGGTATCTG | 0.986 |
| CCGCTACAGG | 2.49 |
| GCTGGTATCT | 0.887 |
| GGGAAATTAA | 0.968 |
| AAGAGGCGTT | 1.02 |
| CAGAGCTGTA | 1.13 |
| TTATACGGTC | 0.989 |
| TGTATAAGAA | 1.02 |
| ATTCGGTTCG | 1.03 |
| GTTGGATCGG | 0.986 |
| GTTGGTAGGC | 1.02 |
| CTTGCGCCAC | 1.76 |
| GCACCTGAAG | 1.06 |
| CTCAACGAGG | 1 |
| AGTACGTTC | 1.01 |
| TCTGAGTACA | 1.02 |
| GCGGCAAGAG | 1.48 |
| CTACCTCTGA | 1.06 |
| ATCGAGCGTC | 1 |
